In all, about 48,000 compounds went through this assay and about 1,200 (2.5%) were called active. About 2% were inconclusive and are not listed.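 Rule for the calls: active = activation of at least 60% and not above a set upper limit (about 1 call in 100 departs from these limits); inconclusive = activation of 40% to 60%, or above that upper limit; inactive = activation under 40%.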 This is one part of the list.

Our source for the activation values is PubChem BioAssay AID1346428 (National Center for Advancing Translational Sciences (NCATS), 2018).

The test addresses Probable G-protein coupled receptor 32 (Homo sapiens) (UniProt O75388). The test is described as follows: qHTS for Agonists of Human Resolvin D1 Receptor DRV1. Note: 0% is about no effect. Particulars: CHO-K1 GPR32 beta-arrestin PathHunter luminescence, 90 min; at 76.9 µM; hits give high values; zero percent set by DMSO-only wells. In short, it runs like this: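 GPR32 activation in stably transfected CHO-K1 cells, detected as beta-arrestin recruitment by enzyme-fragment complementation. Compound exposure: 90 min, 37 °C.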
Chain of UniProt O75388 (O75388 whole entry, looked up, the tested form may be a part): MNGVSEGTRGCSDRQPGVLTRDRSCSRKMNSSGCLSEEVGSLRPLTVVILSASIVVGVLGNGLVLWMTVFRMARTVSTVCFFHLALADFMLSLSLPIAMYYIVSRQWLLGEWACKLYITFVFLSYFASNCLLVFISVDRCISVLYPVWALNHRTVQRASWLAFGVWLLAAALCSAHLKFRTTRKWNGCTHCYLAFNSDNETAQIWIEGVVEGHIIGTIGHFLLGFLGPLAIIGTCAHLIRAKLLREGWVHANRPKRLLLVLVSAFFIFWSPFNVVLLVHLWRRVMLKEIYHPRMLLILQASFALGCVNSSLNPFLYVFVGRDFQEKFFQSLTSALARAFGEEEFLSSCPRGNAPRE
(Quantitative high-throughput screening tests each substance at several concentrations.)
Regarding `Cc1ccc(NC(=O)Nc2cccc(C)n2)cc1`, the activation was active: 64.5%.

Turning to `Cc1cc(C)c(NS(=O)(=O)c2ccc3c(c2)CC(C)N3C(=O)C2CCC2)c(C)c1` (stereo not drawn), the activation is inactive: 11.8%.

Take `CN(C(=O)c1cc2c(Cl)nc3ccccc3c2s1)c1cccc(C(F)(F)F)c1`: the activation was inactive: -19.2%.

Turning to `COc1cccc(NC(=O)N(Cc2c[nH]c3ccccc23)C2CCCCCC2)c1`, the activation was inactive: -2.38%.

On to `CCn1c(C(=O)Nc2c(C)cccc2C)cc2sc(Cl)cc21`, for which the activation is inactive: -16.2%.

As for `O=C(Cn1nc(-c2ccccc2)c2c(c1=O)CCCC2)Nc1ccc(F)c(Cl)c1`, the activation was inactive: -21.2%.

On to `Cc1ccccc1NS(=O)(=O)c1ccc2[nH]cc(C(=O)NC3CCCCC3)c(=O)c2c1`, for which the activation is inactive: -9.34%.

As to `COc1cccc(-c2noc(COc3ccc(C(C)(C)C)cc3)n2)c1`, the activation is inactive: -5.73%.

Regarding `COc1ccccc1CNCCCCCCNCCCCCCCCNCCCCCCNCc1ccccc1OC`, the activation is inactive: -13%.

`CCn1c(=O)c2cc(C(=O)NC3CCC(C)CC3)sc2c2ccccc21` (stereo not drawn): the activation is inactive: -4.24%.

On to `Cc1ccc(NC(=O)c2oc3ccc(S(=O)(=O)N4CCCCCC4)cc3c2C)c(C)c1`, for which the activation is inactive: 0.894%.

For the compound `Cc1ccc(NC(=O)c2c(NC(=O)c3ccc(F)cc3)sc3c2CCCC3)cc1C`, the activation was inactive: -9.27%.

Regarding `COc1ccc(OC)c(NC(=O)Cn2c(=O)n(-c3cccc(C)c3)c(=O)c3c2c2cc(C)ccc2n3C)c1`, the activation is inactive: 31.5%.

`COc1ccc(-n2c(C)nnc2SCc2nc(-c3ccc(OC)c(OC)c3)no2)cc1`: the activation was inactive: 5.49%.

For `COc1ccc(NC(=O)c2cc3c(=O)n(Cc4cccs4)ccc3nc2C)cc1`, the activation is inactive: -11.6%.

For the compound `O=C(c1cc(-c2cccc(Cl)c2)on1)N1CCCCC1`, the activation was active: 65.7%.

`CCOC(=O)c1cc(OC(=O)c2cc(OC)c(OC)c(OC)c2)n(-c2ccccc2)n1`: the activation was inactive: 7.58%.

As for `CCOC(=O)c1c(C)oc2nc(C)nc(N3CCN(c4cc(Cl)ccc4C)CC3)c12`, the activation was inactive: 2.43%.

As to `COc1cccc(CNC(=O)CCCn2nc(C)c3sc4ccccc4c3c2=O)c1`, the activation was inactive: -14.5%.

Take `CCc1ccccc1N(C)C(=O)Cn1cnc2sc(C)c(S(=O)(=O)N3CCC(C)CC3)c2c1=O`: the activation was inactive: -9.22%.

With `CCOc1ccc(-n2c(SCC(=O)Nc3cc(C)on3)nc3c([nH]c4ccccc43)c2=O)cc1`, the activation was inactive: -5.28%.

In the case of `Cc1cc(OCC(=O)Nc2c(C(=O)c3ccccc3)oc3ccccc23)cc(C)c1Cl`, the activation is inactive: -15.6%.

For the compound `CC(C)CN(CCCNC(=O)c1cc(-c2cccs2)nc2ccccc12)CC(C)C`, the activation is inactive: 2.87%.

`Cc1nn(C)c2c1c(-c1ccccc1)cc(=O)n2Cc1ccccc1C#N`: the activation was inactive: 3.31%.

Take `CCOC(=O)C1CCCN(c2c(C(=O)c3ccc(OCC)cc3)cnc3ccccc23)C1` (stereo not drawn): the activation is inactive: -17.5%.

As for `CCN1CCN(CCCNC(=O)c2cnn(-c3ccccc3Cl)c2C2CCN(C(=O)OC(C)(C)C)CC2)CC1`, the activation is inactive: -14.8%.

`Cc1cc(F)ccc1NC(=O)C1CCN(C(=O)c2cnn(-c3ccccc3)c2-n2cccc2)CC1`: the activation was inactive: -18.7%.

Take `CCCCc1nn2c(=O)cc(COC(=O)c3cccc(Cl)c3)nc2s1`: the activation is inactive: 0%.

Consider `O=C(c1ccccc1)c1cn(Cc2ccc(F)cc2)c2ccccc2c1=O`, for which the activation is inactive: -8.64%.

On to `Cc1cccc(C)c1NC(=O)Cn1nnc(C(=O)Nc2c(C)cccc2C)c1N`, for which the activation was inactive: 19.4%.

Regarding `O=C(CCC1N=C2c3ccccc3N=C(SCc3cccc(F)c3)N2C1=O)NCCc1ccccc1` (stereo not drawn), the activation is inactive: -7.08%.

Take `COC(=O)c1ccccc1NC(=O)c1ccc(-c2nc(COc3ccccc3)c(C)o2)cc1`: the activation was inactive: -5.19%.

In the case of `Cc1ccc(CNC(=O)CN2C(=O)CSc3c2c(C)nn3-c2ccccc2)cc1`, the activation is inactive: -7.22%.

As to `CCOC(=O)c1c(C)[nH]c(CCC(=O)NCc2cccc(C)c2)c1C`, the activation is inactive: -7.1%.

Turning to `COCCCn1c(=N)c(C(=O)NCc2cccnc2)cc2c(=O)n3cccc(C)c3nc21`, the activation was inactive: -5.32%.

Regarding `CN1C(=O)Cc2cc(S(=O)(=O)CCC(=O)Nc3ccc(Cl)c(C(F)(F)F)c3)ccc21`, the activation is inactive: -5.31%.

For `COc1ccc(C)cc1NC(=O)CCNC(=O)Cn1ccc2ccccc2c1=O`, the activation is inactive: 26.3%.

With `COc1ccc(NC(=O)c2oc3ccccc3c2NC(=O)Cc2coc3cc(C)ccc23)cc1`, the activation is inactive: -2.04%.

For the compound `COc1ccc2oc(-c3ccc(C)c(NC(=O)c4ccc5c(c4)OCCO5)c3)nc2c1`, the activation is inactive: 1.83%.

In the case of `COc1ccc(-n2ncc(C(=O)Nc3ccc4c(c3)OCO4)c2C2CCN(C(=O)OC(C)(C)C)CC2)cc1`, the activation is inactive: -19.2%.

Consider `Cc1ccc(NC(=O)Cn2cc(S(=O)(=O)Cc3cccc(Cl)c3)c3ccccc32)cc1C`, for which the activation is inactive: -12.8%.

Regarding `COc1ccc(C2=C(C)C(=NCCCN3CCN(c4cc(Cl)ccc4C)CC3)NS2(=O)=O)cc1`, the activation was inactive: 24.3%.

Turning to `CCCNC(=O)COCc1cc(-c2ccc(F)cc2)on1`, the activation was inactive: -1.21%.

Regarding `O=C(CCC1N=C2c3ccccc3N=C(SCc3ccccc3F)N2C1=O)NCc1ccccc1` (stereo not drawn), the activation is inactive: 38.7%.

For the compound `O=C(NCc1ccccc1Br)c1ccc2c(c1)nc1n2CCOC1`, the activation is inactive: -1.16%.

`Cn1c(-c2ccccc2)cnc1NCc1ccccc1O`: the activation is inactive: -0.318%.

With `COc1ccc(-c2cn3c(n2)sc2cc(C(=O)Nc4cccc(SC)c4)ccc23)cc1`, the activation was inactive: -4.43%.

As to `CCc1ccc(N(CC)C(=O)CCn2cnc3onc(-c4ccc(F)cc4)c3c2=O)cc1`, the activation is inactive: 4.55%.

Regarding `CCOC(=O)c1c(C)c(-c2ccccc2)n(CC(=O)Nc2ccc(OCC)cc2)c1C`, the activation is inactive: -21.6%.

For the compound `O=C(Nc1ccc2nc(SCCOc3ccccc3)sc2c1)c1ccccc1F`, the activation is inactive: 20.8%.

For the compound `Cc1ccc(CSC2=Nc3ccccc3C3=NC(CC(=O)NCc4cccs4)C(=O)N23)c(C)c1` (stereo not drawn), the activation is inactive: -26.4%.

As for `CCCCNS(=O)(=O)c1ccc(N2CCCCS2(=O)=O)cc1`, the activation is inactive: 5.54%.

For the compound `Cc1ccc(Cl)cc1N1CCN(C(=O)C2CCN(S(=O)(=O)Cc3ccccc3)CC2)CC1`, the activation was inactive: 10.2%.
